# The supplement of paper PMC12067230
# The data scatter; read single values as rough.
# Experiment: amyloid nucleation score relative to library mode (yeast Sup35 reporter selection) (log enrichment difference); higher = more amyloid nucleation; sequences are the first 22 residues of the Bri2 peptide extended by up to 12 random residues
# Conditions: random library (experiment): 1;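 active = nucleation score significantly above 0 at FDR 0.05; inactive = not significantly above 0 or absent from output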
# 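Also: [psi-pin-] Saccharomyces cerevisiae expressing SupN fusions, induced by 100 µM Cu2SO4, selected 7 d at 30 °C without adenine and uracil, scored by deep sequencing of output versus input.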
row,Sequence,amyloid nucleation score
1,EASNCFAIRHFENKFAVETLICIDCTSF,6.6
2,EASNCFAIRHFENKFAVETLICPLSRDLYCCGEE,4
3,EASNCFAIRHFENKFAVETLICVTK,2.7
4,EASNCFAIRHFENKFAVETLICMGDCGLG,5.33
5,EASNCFAIRHFENKFAVETLICVLSGCQGVMYSV,inactive
6,EASNCFAIRHFENKFAVETLICEPDASSVILAQW,inactive
7,EASNCFAIRHFENKFAVETLICTWLKRLSDAWAK,1.4
8,EASNCFAIRHFENKFAVETLICVGAADWMCSRMW,inactive
9,EASNCFAIRHFENKFAVETLICLVINISWVSYLK,inactive
10,EASNCFAIRHFENKFAVETLICVAHKSTPCCGVP,inactive
11,EASNCFAIRHFENKFAVETLICGCFLSDTCLLIQ,2.49
12,EASNCFAIRHFENKFAVETLICAPCGVYHVCLCR,inactive
13,EASNCFAIRHFENKFAVETLICWDYTAAMTVRSS,inactive
14,EASNCFAIRHFENKFAVETLICIVQKIVAEVGCR,inactive
15,EASNCFAIRHFENKFAVETLICADRVTGSHHVVG,inactive
16,EASNCFAIRHFENKFAVETLICWNDY,5.07
17,EASNCFAIRHFENKFAVETLICWSLVNAPCREL,4.72
18,EASNCFAIRHFENKFAVETLICRWSTSWRDDSYC,3.98
19,EASNCFAIRHFENKFAVETLICHYQTWTVQTVVV,inactive
20,EASNCFAIRHFENKFAVETLICVTRAFHGMPRRG,inactive
21,EASNCFAIRHFENKFAVETLICVWLWLKWGGSMW,inactive
22,EASNCFAIRHFENKFAVETLICGTSETRHGGPRG,inactive
23,EASNCFAIRHFENKFAVETLICCCCVFRVVARYG,1.39
24,EASNCFAIRHFENKFAVETLICWFMPWSAFSWLV,inactive
25,EASNCFAIRHFENKFAVETLICGPLNKLFVSWV,inactive

row,Sequence,amyloid nucleation score
1,EASNCFAIRHFENKFAVETLICWV,4.9
2,EASNCFAIRHFENKFAVETLICEQFVASYAGARR,8.17
3,EASNCFAIRHFENKFAVETLICDLHLWMKKRYGI,inactive
4,EASNCFAIRHFENKFAVETLICVLF,5.75
5,EASNCFAIRHFENKFAVETLICEFGYCQRASVPE,inactive
6,EASNCFAIRHFENKFAVETLICISDFVSVGLDYT,inactive
7,EASNCFAIRHFENKFAVETLICDYCHEGAGLQYG,inactive
8,EASNCFAIRHFENKFAVETLICVVLSDIS,5.72
9,EASNCFAIRHFENKFAVETLICRHEYSERWPQSG,5.31
10,EASNCFAIRHFENKFAVETLICLL,7.64
11,EASNCFAIRHFENKFAVETLICVKEFGTVQRLVR,inactive
12,EASNCFAIRHFENKFAVETLICYAPSLRQQMAWR,inactive
13,EASNCFAIRHFENKFAVETLICDVMWIRRTLV,inactive
14,EASNCFAIRHFENKFAVETLICPLLPCSRVLRFG,inactive
15,EASNCFAIRHFENKFAVETLICCSDIWVQRKLRG,7.33
16,EASNCFAIRHFENKFAVETLICVMRNWEITVLGG,5.99
17,EASNCFAIRHFENKFAVETLICLAVLKSWNPK,inactive
18,EASNCFAIRHFENKFAVETLICHNNWCISGGRLP,7.77
19,EASNCFAIRHFENKFAVETLICRWACCCALRLGP,inactive
20,EASNCFAIRHFENKFAVETLICEVSLMWLVLCRS,inactive
21,EASNCFAIRHFENKFAVETLICCCWYFNVQLVTH,inactive
22,EASNCFAIRHFENKFAVETLICFPCT,5.27
23,EASNCFAIRHFENKFAVETLICTAFDCRMRWVWR,inactive
24,EASNCFAIRHFENKFAVETLICLLVK,inactive
25,EASNCFAIRHFENKFAVETLICLCAMGWQLRRAP,-0.732

# Same assay, conditions: random library (experiment): 2
row,Sequence,amyloid nucleation score
1,EASNCFAIRHFENKFAVETLICVVNLLNHSSISS,5.98
2,EASNCFAIRHFENKFAVETLICGNGFYTSLCTGG,6.82
3,EASNCFAIRHFENKFAVETLICRNLNYAS,4.91
4,EASNCFAIRHFENKFAVETLICHHYLLAMSIVTI,inactive
5,EASNCFAIRHFENKFAVETLICCSIVKSRMGRCV,5.46
6,EASNCFAIRHFENKFAVETLICDGASW,inactive
7,EASNCFAIRHFENKFAVETLICLWTPMDDRRYSL,4.75
8,EASNCFAIRHFENKFAVETLICMSIIVLSYSNLM,inactive
9,EASNCFAIRHFENKFAVETLICMDSWGMYVRRYM,inactive
10,EASNCFAIRHFENKFAVETLICGYSHSKMNKVKC,inactive
11,EASNCFAIRHFENKFAVETLICLIWTDNV,inactive
12,EASNCFAIRHFENKFAVETLICHVFVRIS,inactive
13,EASNCFAIRHFENKFAVETLICIYNEHRVNFSCL,2.98
14,EASNCFAIRHFENKFAVETLICFINAWNIVHVDS,inactive
15,EASNCFAIRHFENKFAVETLICVNSYSLLRCKTV,inactive
16,EASNCFAIRHFENKFAVETLICLVWTESIRVGSV,inactive
17,EASNCFAIRHFENKFAVETLICTCRYKVTHSCLK,5.15
18,EASNCFAIRHFENKFAVETLICTFLGFDVPGECR,inactive
19,EASNCFAIRHFENKFAVETLICISSCSHYARRNY,2.59
20,EASNCFAIRHFENKFAVETLICNAGSL,-0.438
21,EASNCFAIRHFENKFAVETLICGWVCVSLVKLRA,-0.148
22,EASNCFAIRHFENKFAVETLICLVKYDKQYGRVC,inactive

row,Sequence,amyloid nucleation score
1,EASNCFAIRHFENKFAVETLICNCAGSICGSFR,8.86
2,EASNCFAIRHFENKFAVETLICIY,inactive
3,EASNCFAIRHFENKFAVETLICIFYCCV,5.2
4,EASNCFAIRHFENKFAVETLICDGCC,inactive
5,EASNCFAIRHFENKFAVETLICLCIRFRGGITSC,inactive
6,EASNCFAIRHFENKFAVETLICYFRMEIMRIVYW,inactive
7,EASNCFAIRHFENKFAVETLICVLGVCFSVWEFA,inactive
8,EASNCFAIRHFENKFAVETLICDTLFYSLPSCEG,5.95
9,EASNCFAIRHFENKFAVETLICVDDMSWLLLRRS,inactive
10,EASNCFAIRHFENKFAVETLICYIMGTYCMGQKS,3.87
11,EASNCFAIRHFENKFAVETLICYV,inactive
12,EASNCFAIRHFENKFAVETLICVNHVLGRGNLLP,0.654
13,EASNCFAIRHFENKFAVETLICVSYHKDINCWVR,inactive
14,EASNCFAIRHFENKFAVETLICGSGHCDTLWGRT,3.03
15,EASNCFAIRHFENKFAVETLICRRMSTYKWIRVV,inactive
16,EASNCFAIRHFENKFAVETLICTSSVERGVDCRE,inactive
17,EASNCFAIRHFENKFAVETLICQVRSAV,-0.531
18,EASNCFAIRHFENKFAVETLICDGKSWMCTFCLG,5.81
19,EASNCFAIRHFENKFAVETLICMIVEAYVFCVNT,inactive
20,EASNCFAIRHFENKFAVETLICERHFSIFIRC,inactive
21,EASNCFAIRHFENKFAVETLICWMRSYSDLFLSH,inactive

# Same assay, conditions: random library (experiment): 3
row,Sequence,amyloid nucleation score
1,EASNCFAIRHFENKFAVETLICAHGRVTQLGVEK,inactive
2,EASNCFAIRHFENKFAVETLICGLCNIAHHNVCW,8.42
3,EASNCFAIRHFENKFAVETLICHGRCQEGVCGSC,inactive
4,EASNCFAIRHFENKFAVETLICRPGPGSHLVRRG,3.21
5,EASNCFAIRHFENKFAVETLICATWS,inactive
6,EASNCFAIRHFENKFAVETLICLEVGCNGVGEGW,5.89
7,EASNCFAIRHFENKFAVETLICAKGSEQARGPLR,inactive
8,EASNCFAIRHFENKFAVETLICERGPSLAVYGSK,inactive
9,EASNCFAIRHFENKFAVETLICANSGVSGWVC,inactive
10,EASNCFAIRHFENKFAVETLICGACWSTLWKLYL,inactive
11,EASNCFAIRHFENKFAVETLICLPRITCRYFN,4.5
12,EASNCFAIRHFENKFAVETLICPHDVHIQGKA,inactive
13,EASNCFAIRHFENKFAVETLICQGEAMNQVGCL,inactive
14,EASNCFAIRHFENKFAVETLICFCAR,4.72
15,EASNCFAIRHFENKFAVETLICARWPREVGRSIG,inactive
16,EASNCFAIRHFENKFAVETLICTYPAVIWEGVFG,inactive
17,EASNCFAIRHFENKFAVETLICVLVNDDELLFSR,5.13
18,EASNCFAIRHFENKFAVETLICHVGDNVVEVMTR,-0.26
19,EASNCFAIRHFENKFAVETLICLYSVRTIRRIQW,inactive
20,EASNCFAIRHFENKFAVETLICHSDSVGLHWLFD,inactive
21,EASNCFAIRHFENKFAVETLICLKMVSPINLEGT,inactive
22,EASNCFAIRHFENKFAVETLICVSMCRQMGKSGP,3.4
23,EASNCFAIRHFENKFAVETLICWTGSRRAEPTCK,inactive
24,EASNCFAIRHFENKFAVETLICNCTKSVYLSTAS,inactive
25,EASNCFAIRHFENKFAVETLICCLVDEIGVYV,5.06
26,EASNCFAIRHFENKFAVETLICVMEARN,inactive
